Our source for the enrichment ratio values is a collection of fitness landscapes (doi:10.1126/science.1257360).

B1: PhoQ; a variant is named by its letters at X, in order, P23837 (parent)
chain: MKKLLRLFFPLSLRVRFLLATAAVVLVLSLAYGMVALIGYSVSFDKTTFRLLRGESNLFYTLAKWENNKLHVELPENIDKQSPTMTLIYDENGQLLWAQRDVPWLMKMIQPDWLKSNGFHEIEADVNDTSLLLSGDHSIQQQLQEVREDDDDAEMTHSVAVNVYPATSRMPKLTIVVVDTIPVELKSSYMVWSWFIYVLSANLLLVIPLLWVAAWWSLRPIEALAKEVRELEEHNRELLNPATTRELTSLVRNLNRLLKSERERYDKYRTTLTDLTHSLKTPLXXLQXXLRSLRSEKMSVSDAEPVMLEQISRISQQIGYYLHRASMRGGTLLSRELHPVAPLLDNLTSALNKVYQRKGVNISLDISPEISFVGEQNDFVEVMGNVLDNACKYCLEFVEISARQTDEHLYIVVEDDGPGIPLSKREVIFDRGQRVDTLRPGQGVGLAVAREITEQYEGKIVAGESMLGGARMEVIFGRQHSAPKDE

This is one part of the list.

This test covers variants of B1. The experiment in a line: enrichment ratio after two sorts for PhoP signalling (ratio (wild type AVST 3.29)); higher = more functional. To be noted: with PhoP (E. coli).
Take YQTE: the enrichment ratio is no more than 0.25.

In the case of EVAF, the enrichment ratio was no more than 0.25.

Regarding STCP, the enrichment ratio is no more than 0.25.

Consider KVYY, for which the enrichment ratio was no more than 0.25.

On to TCLL, for which the enrichment ratio worked out at 1.89.

EKVY: the enrichment ratio was no more than 0.25.

With RGIG, the enrichment ratio is no more than 0.25.

Regarding MPYE, the enrichment ratio was no more than 0.25.

Regarding VPPQ, the enrichment ratio is no more than 0.25.

As for DWEH, the enrichment ratio was no more than 0.25.

Take LEYT: the enrichment ratio is 11.9.

For SAKQ, the enrichment ratio was no more than 0.25.

In the case of NCLY, the enrichment ratio is no more than 0.25.

For WFGC, the enrichment ratio was no more than 0.25.

Turning to QSCN, the enrichment ratio is no more than 0.25.

For GSTP, the enrichment ratio was no more than 0.25.

In the case of WIMV, the enrichment ratio is no more than 0.25.

In the case of HTQW, the enrichment ratio was no more than 0.25.

With MMCQ, the enrichment ratio came to 4.77.

Turning to FHKN, the enrichment ratio was no more than 0.25.

On to CSIS, for which the enrichment ratio is no more than 0.25.

Regarding VEAM, the enrichment ratio is 3.2.

Consider HRDR, for which the enrichment ratio was determined as 0.741.

On to SWNC, for which the enrichment ratio was no more than 0.25.

Turning to ANGD, the enrichment ratio was no more than 0.25.

As for FSWP, the enrichment ratio is no more than 0.25.

On to DLIH, for which the enrichment ratio is no more than 0.25.

Take TGED: the enrichment ratio was no more than 0.25.

Take SSRV: the enrichment ratio was no more than 0.25.

On to LTHQ, for which the enrichment ratio is no more than 0.25.

For the variant MLNV, the enrichment ratio is no more than 0.25.

As to DIQC, the enrichment ratio was no more than 0.25.

Regarding KEWT, the enrichment ratio is no more than 0.25.

Take VHIV: the enrichment ratio was no more than 0.25.

For the variant FLFG, the enrichment ratio is no more than 0.25.

Turning to PIST, the enrichment ratio was no more than 0.25.

In the case of SPRC, the enrichment ratio was no more than 0.25.

In the case of LTGD, the enrichment ratio was no more than 0.25.

On to HPIP, for which the enrichment ratio was no more than 0.25.

Turning to LNVI, the enrichment ratio is no more than 0.25.

In the case of DEYR, the enrichment ratio is no more than 0.25.

Regarding LCGA, the enrichment ratio is no more than 0.25.

For NKCM, the enrichment ratio is no more than 0.25.

In the case of MRDP, the enrichment ratio was no more than 0.25.

On to KFMT, for which the enrichment ratio was no more than 0.25.

For the variant QRQI, the enrichment ratio is no more than 0.25.

For the variant NMCR, the enrichment ratio is no more than 0.25.

For GNYY, the enrichment ratio was no more than 0.25.

With ETWM, the enrichment ratio was no more than 0.25.

With NWVY, the enrichment ratio was no more than 0.25.

As to VGPN, the enrichment ratio was no more than 0.25.

In the case of HWMT, the enrichment ratio is no more than 0.25.

Regarding ADVA, the enrichment ratio is no more than 0.25.

Regarding MFNQ, the enrichment ratio was no more than 0.25.

Regarding DAIM, the enrichment ratio was no more than 0.25.

Consider IWFM, for which the enrichment ratio is no more than 0.25.

Take TYMG: the enrichment ratio was 14.3.

In the case of IWVK, the enrichment ratio was no more than 0.25.

Regarding AWAC, the enrichment ratio was no more than 0.25.

Regarding HCLW, the enrichment ratio is no more than 0.25.

Turning to IGIR, the enrichment ratio was no more than 0.25.

For FQNS, the enrichment ratio is no more than 0.25.

Regarding KDTS, the enrichment ratio is no more than 0.25.

Regarding LYSY, the enrichment ratio is no more than 0.25.

With FWLC, the enrichment ratio is no more than 0.25.

As for NSTA, the enrichment ratio is no more than 0.25.

With WQTS, the enrichment ratio is no more than 0.25.

Take LLEP: the enrichment ratio was no more than 0.25.

Take EALT: the enrichment ratio was no more than 0.25.

On to TGTA, for which the enrichment ratio was determined as 11.1.

For the variant AAKS, the enrichment ratio was no more than 0.25.

WRAM: the enrichment ratio is no more than 0.25.

For the variant PWNQ, the enrichment ratio was no more than 0.25.

In the case of LVIW, the enrichment ratio was no more than 0.25.

Regarding SKVG, the enrichment ratio was no more than 0.25.

RRCR: the enrichment ratio was no more than 0.25.

FNNY: the enrichment ratio is no more than 0.25.

Consider ANQR, for which the enrichment ratio was no more than 0.25.

With SGVN, the enrichment ratio was 16.8.

For the variant AGGA, the enrichment ratio was 0.444.

Consider WYYP, for which the enrichment ratio was no more than 0.25.

In the case of SGCV, the enrichment ratio was determined as 15.2.

On to DFKV, for which the enrichment ratio was no more than 0.25.

On to MYQP, for which the enrichment ratio was no more than 0.25.

Consider NTAA, for which the enrichment ratio was no more than 0.25.

In the case of HKQL, the enrichment ratio is no more than 0.25.

Turning to KINH, the enrichment ratio is no more than 0.25.

Take LFWK: the enrichment ratio is no more than 0.25.

Consider RAWD, for which the enrichment ratio was no more than 0.25.

For the variant DTDI, the enrichment ratio was no more than 0.25.

With SVGQ, the enrichment ratio was 2.73.

As to MCTS, the enrichment ratio is 1.34.

For WRGE, the enrichment ratio is no more than 0.25.

Regarding RLSK, the enrichment ratio was no more than 0.25.

In the case of KDPH, the enrichment ratio was no more than 0.25.

As to KSKE, the enrichment ratio was no more than 0.25.

HFYK: the enrichment ratio was 0.61.

Consider REPS, for which the enrichment ratio was no more than 0.25.

GDWW: the enrichment ratio was no more than 0.25.

With LCMG, the enrichment ratio is no more than 0.25.

As to HHHV, the enrichment ratio was no more than 0.25.

PSLC: the enrichment ratio was no more than 0.25.

Turning to WHAA, the enrichment ratio was no more than 0.25.

Consider GEPH, for which the enrichment ratio is no more than 0.25.

Regarding ILPP, the enrichment ratio is no more than 0.25.

Regarding IDYD, the enrichment ratio is no more than 0.25.

As for GTWL, the enrichment ratio is no more than 0.25.

In the case of QDKC, the enrichment ratio is no more than 0.25.

As to NMIY, the enrichment ratio is no more than 0.25.

Regarding PWYC, the enrichment ratio is no more than 0.25.

As for TDQR, the enrichment ratio was no more than 0.25.

Consider AAGL, for which the enrichment ratio came out at 8.23.

In the case of DKET, the enrichment ratio was no more than 0.25.

GHAM: the enrichment ratio was no more than 0.25.

Turning to KFMA, the enrichment ratio was no more than 0.25.

Take GEQG: the enrichment ratio was no more than 0.25.

In the case of PQSA, the enrichment ratio is no more than 0.25.

On to VQQG, for which the enrichment ratio was no more than 0.25.

On to YGSS, for which the enrichment ratio was no more than 0.25.

Turning to FTQQ, the enrichment ratio was no more than 0.25.

On to AFNN, for which the enrichment ratio was no more than 0.25.

Consider QEVV, for which the enrichment ratio is no more than 0.25.

AWFE: the enrichment ratio is no more than 0.25.

On to DSQS, for which the enrichment ratio is no more than 0.25.

Take MEII: the enrichment ratio stood at 2.69.

Turning to CQTL, the enrichment ratio was no more than 0.25.

Take QGDE: the enrichment ratio came to 4.94.

Regarding ISRV, the enrichment ratio was no more than 0.25.

With DEMW, the enrichment ratio was no more than 0.25.

Consider NMWK, for which the enrichment ratio was no more than 0.25.

For the variant ISFW, the enrichment ratio was no more than 0.25.

With QYRD, the enrichment ratio is no more than 0.25.

QSKS: the enrichment ratio is no more than 0.25.

For GDVG, the enrichment ratio was no more than 0.25.

For the variant TRKN, the enrichment ratio was no more than 0.25.

In the case of YRDA, the enrichment ratio was no more than 0.25.

With FREC, the enrichment ratio is no more than 0.25.

As to IGKV, the enrichment ratio is no more than 0.25.

Consider NHMV, for which the enrichment ratio was no more than 0.25.

Take GHCG: the enrichment ratio was no more than 0.25.

Turning to LNMG, the enrichment ratio is no more than 0.25.

Take DGWG: the enrichment ratio was no more than 0.25.

Take AKEY: the enrichment ratio is no more than 0.25.

Regarding EKHV, the enrichment ratio is no more than 0.25.

Consider GHRW, for which the enrichment ratio was no more than 0.25.

On to YGVA, for which the enrichment ratio was no more than 0.25.

Take HQMR: the enrichment ratio was no more than 0.25.

For FMQL, the enrichment ratio is no more than 0.25.

As to QCAY, the enrichment ratio was no more than 0.25.

As for ELGN, the enrichment ratio was no more than 0.25.

For EGHV, the enrichment ratio is no more than 0.25.

On to LCAD, for which the enrichment ratio was no more than 0.25.

LKGC: the enrichment ratio was no more than 0.25.
